Reference: article PMC10020501
No constants are given. Whether binding was seen depends on the method and setting. In cells and extracts the contact can be indirect. Some results given as binding are weak or reduced against the parent protein; the word gives no strength. Sequences can lack the tags named with a protein.

Molecular target: T1, GFP-tagged human IKKϵ (IKKϵ-GFP) (human) (UniProt Q14164)
T1 sequence: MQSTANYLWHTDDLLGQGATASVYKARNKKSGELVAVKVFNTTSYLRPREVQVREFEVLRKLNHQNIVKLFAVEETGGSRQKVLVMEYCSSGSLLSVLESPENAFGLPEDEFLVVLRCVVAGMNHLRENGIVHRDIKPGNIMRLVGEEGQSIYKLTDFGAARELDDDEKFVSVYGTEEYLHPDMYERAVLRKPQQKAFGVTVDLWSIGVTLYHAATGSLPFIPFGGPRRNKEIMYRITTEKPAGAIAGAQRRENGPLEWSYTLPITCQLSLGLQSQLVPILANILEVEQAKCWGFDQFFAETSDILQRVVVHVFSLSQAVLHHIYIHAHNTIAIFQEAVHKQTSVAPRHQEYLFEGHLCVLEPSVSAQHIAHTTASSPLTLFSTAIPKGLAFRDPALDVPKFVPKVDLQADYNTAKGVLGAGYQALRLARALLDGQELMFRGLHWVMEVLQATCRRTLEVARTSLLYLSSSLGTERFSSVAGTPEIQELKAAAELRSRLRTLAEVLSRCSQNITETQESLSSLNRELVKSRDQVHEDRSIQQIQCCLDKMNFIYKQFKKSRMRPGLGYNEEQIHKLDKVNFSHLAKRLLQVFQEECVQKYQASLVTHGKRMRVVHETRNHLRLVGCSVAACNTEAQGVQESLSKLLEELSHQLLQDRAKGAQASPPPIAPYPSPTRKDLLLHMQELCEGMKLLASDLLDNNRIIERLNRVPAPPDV
Assay: co-IP; IKKϵ-GFP precipitated with GFP-trap magnetic agarose beads (GFP nanobody) from lysates of IKKϵ-deficient THP1-Dual cells stably expressing IKKϵ-GFP; cells treated with MG-132 (10 µM, 6 h); TAP lysis buffer with N-ethylmaleimide, overnight at 4°C; immunoblot

binding: binds
B1: TANK-binding kinase (TBK1), endogenous (enzyme, UniProt Q9UHD2 1-729)
chain: MQSTSNHLWLLSDILGQGATANVFRGRHKKTGDLFAIKVFNNISFLRPVDVQMREFEVLKKLNHKNIVKLFAIEEETTTRHKVLIMEFCPCGSLYTVLEEPSNAYGLPESEFLIVLRDVVGGMNHLRENGIVHRDIKPGNIMRVIGEDGQSVYKLTDFGAARELEDDEQFVSLYGTEEYLHPDMYERAVLRKDHQKKYGATVDLWSIGVTFYHAATGSLPFRPFEGPRRNKEVMYKIITGKPSGAISGVQKAENGPIDWSGDMPVSCSLSRGLQVLLTPVLANILEADQEKCWGFDQFFAETSDILHRMVIHVFSLQQMTAHKIYIHSYNTATIFHELVYKQTKIISSNQELIYEGRRLVLEPGRLAQHFPKTTEENPIFVVSREPLNTIGLIYEKISLPKVHPRYDLDGDASMAKAITGVVCYACRIASTLLLYQELMRKGIRWLIELIKDDYNETVHKKTEVVITLDFCIRNIEKTVKVYEKLMKINLEAAELGEISDIHTKLLRLSSSQGTIETSLQDIDSRLSPGGSLADAWAHQEGTHPKDRNVEKLQVLLNCMTEIYYQFKKDKAERRLAYNEEQIHKFDKQKLYYHATKAMTHFTDECVKKYEAFLNKSEEWIRKMLHLRKQLLSLTNQCFDIEEEVSKYQEYTNELQETLPQKMFTASSGIKHTMTPIYPSSNTLVEMTLGMKKLKEEMEGVVKELAENNHILERFGSLTMDGGLRNVDCL
